We go through 15 test systems from the supplement of paper PMC9927326.

MIC of clinical C. albicans isolates, CLSI broth microdilution (ranges and time not stated); higher = less susceptible. Call: susceptible or wild type [S] / resistant or non-wild type [R] by CLSI breakpoints or epidemiological cut-offs; intermediate and dose-dependent carry no call here (the paper groups them with resistant). '<=' and '>=' mark each drug's lowest and highest value, inferred; the source prints them plain. Isolates are numbered anew. A value given as a limit tells only on which side of the number the result lay.

What all share (assay): CLSI broth microdilution.
In general terms: Dilution methods test growth across graded concentrations, often in twofold steps.

Compound in test [1]: CCC(C)n1ncn(-c2ccc(N3CCN(c4ccc(OCC5COC(Cn6cncn6)(c6ccc(Cl)cc6Cl)O5)cc4)CC3)cc2)c1=O [itraconazole]
Compound in test [2]: C[C@@H]1[C@H](O)[C@@H](C)/C=C/C=C/C=C/C=C/C=C/C=C/C=C/[C@H](O[C@@H]2O[C@H](C)[C@@H](O)[C@H](N)[C@@H]2O)C[C@@H]2O[C@](O)(C[C@@H](O)C[C@@H](O)[C@H](O)CC[C@@H](O)C[C@@H](O)CC(=O)O[C@H]1C)C[C@H](O)[C@H]2C(=O)O [amphotericin B]
Compound in test [3]: CC[C@H](C)C[C@H](C)CCCCCCCCC(=O)N[C@H]1C[C@@H](O)[C@@H](NCCN)NC(=O)[C@@H]2[C@@H](O)CCN2C(=O)[C@H]([C@H](O)CCN)NC(=O)[C@H]([C@H](O)[C@@H](O)c2ccc(O)cc2)NC(=O)[C@@H]2C[C@@H](O)CN2C(=O)[C@H]([C@@H](C)O)NC1=O [caspofungin]
Compound in test [4]: CC[C@@H]([C@H](C)O)n1ncn(-c2ccc(N3CCN(c4ccc(OC[C@@H]5CO[C@@](Cn6cncn6)(c6ccc(F)cc6F)C5)cc4)CC3)cc2)c1=O [posaconazole]
Compound in test [5]: Nc1[nH]c(=O)ncc1F [flucytosine]
Compound in test [6]: CCCCCOc1ccc(-c2ccc(-c3ccc(C(=O)N[C@H]4C[C@@H](O)[C@@H](O)NC(=O)[C@@H]5[C@@H](O)[C@@H](C)CN5C(=O)[C@H]([C@@H](C)O)NC(=O)[C@H]([C@H](O)[C@@H](O)c5ccc(O)cc5)NC(=O)[C@@H]5C[C@@H](O)CN5C(=O)[C@H]([C@@H](C)O)NC4=O)cc3)cc2)cc1 [anidulafungin]
Compound in test [7]: CCCCCOc1ccc(-c2cc(-c3ccc(C(=O)N[C@H]4C[C@@H](O)[C@@H](O)NC(=O)[C@@H]5[C@@H](O)[C@@H](C)CN5C(=O)[C@H]([C@H](O)CC(N)=O)NC(=O)[C@H]([C@H](O)[C@@H](O)c5ccc(O)c(OS(=O)(=O)O)c5)NC(=O)[C@@H]5C[C@@H](O)CN5C(=O)[C@H]([C@@H](C)O)NC4=O)cc3)no2)cc1 [micafungin]
Compound in test [8]: OC(Cn1cncn1)(Cn1cncn1)c1ccc(F)cc1F [fluconazole]
Compound in test [9]: C[C@@H](c1ncncc1F)[C@](O)(Cn1cncn1)c1ccc(F)cc1F [voriconazole]

As to “Candida albicans isolate 248 (Erg11p: V488I,L276S,E266D, Fur1p: WT, Tac1p: N896S,I895T)”, the minimal inhibitory concentration (MIC) (commonly the least concentration at which growth counts as inhibited) in [1] is 0.06 mg/L [S]; in [2] it was 0.5 mg/L [S]; in test [3], 0.03 mg/L [S]; in [4] it was 0.03 mg/L [S]; in test [5], at most 0.06 mg/L [S]; in [6], 0.03 mg/L [S]. Besides, the minimal inhibitory concentration (MIC) in [7] was 0.015 mg/L [S]; in test [8], 0.5 mg/L [S]; in test [9], at most 0.008 mg/L [S].
Regarding “Candida albicans isolate 249 (Erg11p: WT, Fur1p: WT, Tac1p: N896S)”, the MIC in test [1] is 0.03 mg/L [S]; in [2], 0.25 mg/L [S]; in [3], 0.06 mg/L [S]; in test [4], 0.015 mg/L [S]; in [5] it was at most 0.06 mg/L [S]; in test [6], 0.06 mg/L [S]. Besides, the minimal inhibitory concentration (MIC) in test [7] is at most 0.008 mg/L [S]; in test [8] it was 0.25 mg/L [S]; in test [9] it was at most 0.008 mg/L [S].
In the case of “Candida albicans isolate 250 (Erg11p: V488I,E266D, Fur1p: WT, Tac1p: N896S,I558V,A377V,F189S,N174D,M170I,K87N)”, the MIC in test [1] is 0.03 mg/L [S]; in test [2], 0.25 mg/L [S]; in test [3], 0.06 mg/L [S]; in test [4], 0.015 mg/L [S]; in [5] it was at most 0.06 mg/L [S]; in test [6], 0.06 mg/L [S]. Also, the results for the minimum inhibitory concentration (MIC) in test [7], in test [8] and in test [9] were 0.015 mg/L [S], 0.25 mg/L [S] and at most 0.008 mg/L [S], respectively.
Regarding “Candida albicans isolate 251 (Erg11p: E266D,G129A, Fur1p: WT, Tac1p: R869Q,L695F,I558V,A377V,F189S,M170V,L131I)”, the MIC in [1] was at least 16 mg/L [R]; in test [2], at most 0.12 mg/L [S]; in [3], at least 8 mg/L [R]; in [4] it was at least 8 mg/L [R]; in [5] it was at least 64 mg/L [R]; in test [6], at least 8 mg/L [R]. In addition, the MIC in test [7] is at least 8 mg/L [R]; in [8], at least 256 mg/L [R]; in [9], at least 8 mg/L [R].
For “Candida albicans isolate 252 (Erg11p: Y132H,T123I, Fur1p: R101C, Tac1p: WT)”, the MIC in test [1] was 0.12 mg/L [S]; in test [2], 0.25 mg/L [S]; in [3], at most 0.008 mg/L [S]; in test [4], 0.03 mg/L [S]; in [5] it was 0.5 mg/L [S]; in [6] it was at most 0.015 mg/L [S]. Moreover, the MIC came out at 0.015 mg/L [S] in test [7], 4 mg/L in [8] and 0.25 mg/L in test [9].
With “Candida albicans isolate 253 (Erg11p: Y132H,T123I, Fur1p: R101C, Tac1p: WT)”, the minimal inhibitory concentration (MIC) in test [1] was 0.12 mg/L [S]; in [2] it was 0.5 mg/L [S]; in test [3], 0.015 mg/L [S]; in [4], 0.06 mg/L [S]; in test [5] it was 0.5 mg/L [S]; in test [6], at most 0.015 mg/L [S]. Moreover, the values for the minimum inhibitory concentration (MIC) in test [7], in test [8] and in test [9] were at most 0.008 mg/L [S], 4 mg/L and 0.5 mg/L, respectively.
As to “Candida albicans isolate 254 (Erg11p: WT, Fur1p: WT, Tac1p: WT)”, the MIC in test [1] is 0.03 mg/L [S]; in test [2] it was 0.5 mg/L [S]; in [3], 0.015 mg/L [S]; in [4] it was 0.015 mg/L [S]; in test [5], at most 0.06 mg/L [S]; in [6], at most 0.015 mg/L [S]. The results for the minimum inhibitory concentration (MIC) in test [7], in [8] and in [9] were 0.015 mg/L [S], 0.5 mg/L [S] and at most 0.008 mg/L [S], respectively.
For “Candida albicans isolate 255 (Erg11p: E266D, Fur1p: WT, Tac1p: N896S,Q775*,I558V,A377V,K87N)”, the minimal inhibitory concentration (MIC) was 0.06 mg/L [S] in [1]; 0.25 mg/L [S] in test [2]; 0.03 mg/L [S] in test [3]; 0.03 mg/L [S] in test [4]; at most 0.06 mg/L [S] in [5]; 0.06 mg/L [S] in test [6]. Moreover, the minimum inhibitory concentration (MIC) is at most 0.008 mg/L [S] in test [7], 0.5 mg/L [S] in test [8] and at most 0.008 mg/L [S] in test [9].
“Candida albicans isolate 256 (Erg11p: V488I,E266D, Fur1p: WT, Tac1p: N896S,L695F,I558V,F189S,L131I)”: the minimum inhibitory concentration (MIC) is at most 0.015 mg/L [S] in [1]; 0.25 mg/L [S] in [2]; 0.03 mg/L [S] in test [3]; 0.015 mg/L [S] in test [4]; at most 0.06 mg/L [S] in test [5]; at most 0.015 mg/L [S] in [6]. Further, the minimum inhibitory concentration (MIC) in test [7] is 0.015 mg/L [S]; in test [8] it was 0.25 mg/L [S]; in test [9] it was at most 0.008 mg/L [S].
Turning to “Candida albicans isolate 257 (Erg11p: WT, Fur1p: WT, Tac1p: I895T)”, the MIC in test [1] was 0.03 mg/L [S]; in test [2] it was 0.5 mg/L [S]; in [3] it was 0.03 mg/L [S]; in test [4], 0.03 mg/L [S]; in [5] it was at most 0.06 mg/L [S]; in [6], at most 0.015 mg/L [S]. Besides, the MIC was at most 0.008 mg/L [S] in test [7], 1 mg/L [S] in test [8] and 0.015 mg/L [S] in test [9].
“Candida albicans isolate 258 (Erg11p: D153E, Fur1p: WT, Tac1p: N896S)”: the MIC in test [1] is 0.03 mg/L [S]; in test [2], 0.5 mg/L [S]; in test [3], 0.06 mg/L [S]; in test [4], 0.015 mg/L [S]; in test [5] it was at most 0.06 mg/L [S]; in test [6], 0.12 mg/L [S]. Also, the minimum inhibitory concentration (MIC) in test [7] was 0.015 mg/L [S]; in test [8], 0.5 mg/L [S]; in test [9] it was at most 0.008 mg/L [S].
On to “Candida albicans isolate 259 (Erg11p: Y257H,A114S, Fur1p: R101C, Tac1p: A736V)”, for which the minimal inhibitory concentration (MIC) was 0.5 mg/L [R] in test [1]; 0.5 mg/L [S] in test [2]; 0.03 mg/L [S] in test [3]; 1 mg/L [R] in [4]; 0.12 mg/L [S] in [5]; at most 0.015 mg/L [S] in [6]. Moreover, the MIC in [7] amounted to 0.015 mg/L [S]; in test [8], 32 mg/L [R]; in [9], 1 mg/L [R].
“Candida albicans isolate 260 (Erg11p: E266D, Fur1p: WT, Tac1p: C908Y,A377V,N174D,M170I,I109N,K87N)”: the minimum inhibitory concentration (MIC) was 0.03 mg/L [S] in test [1]; 0.25 mg/L [S] in [2]; 0.03 mg/L [S] in test [3]; 0.015 mg/L [S] in [4]; at most 0.06 mg/L [S] in [5]; 0.03 mg/L [S] in test [6]. Moreover, the minimum inhibitory concentration (MIC) was 0.015 mg/L [S] in [7], 0.5 mg/L [S] in test [8] and at most 0.008 mg/L [S] in test [9].
Turning to “Candida albicans isolate 261 (Erg11p: Y257H,A114S, Fur1p: R101C, Tac1p: A736V)”, the MIC in [1] is 0.5 mg/L [R]; in test [2] it was 0.5 mg/L [S]; in test [3], 0.03 mg/L [S]; in test [4], 0.5 mg/L [R]; in test [5], 0.12 mg/L [S]; in [6], at most 0.015 mg/L [S]. Further, the values for the MIC in [7], in test [8] and in test [9] were 0.015 mg/L [S], 32 mg/L [R] and 1 mg/L [R], respectively.
As to “Candida albicans isolate 262 (Erg11p: Q295E,E266D, Fur1p: WT, Tac1p: N896S)”, the MIC in test [1] was 0.06 mg/L [S]; in [2], 0.5 mg/L [S]; in [3], 0.06 mg/L [S]; in [4] it was 0.03 mg/L [S]; in test [5], at most 0.06 mg/L [S]; in [6], 0.06 mg/L [S]. The MIC was 0.015 mg/L [S] in [7], 1 mg/L [S] in test [8] and 0.015 mg/L [S] in test [9].
